Measurements published in PubChem BioAssay AID1347073 (National Center for Advancing Translational Sciences (NCATS), 2019).
In all, about 45,000 compounds went through this assay and about 200 (0.44%) were called active. Roughly 7% stayed inconclusive and do not appear here. Calls follow the shape of the dose curve; as a rule, active = well fitted activation curve with a large enough effect; inconclusive = small, poorly fitted or top-dose-only effect; inactive = no such curve, though single readings can be large or run the other way. This is one part of the list.

Assay: qHTS of TDP-43 Inhibitors: NCGC Sytravon Library Screen; also: 0% is about no effect; nearly all actives have a fitted effect of over 55% in size
Settings: yeast TDP-43 toxicity rescue, BacTiter-Glo growth, 24 h; at 46.1 µM (top of the series)
In short: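 TDP-43-expressing yeast, pregrown in raffinose, seeded at OD600 0.02 in galactose medium with compound for 24 hr at 30 deg C. Growth read by BacTiter-Glo luminescence, so rescue of toxicity appears as activation.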

Row | Compound | growth rescue (activation)
1 | O=C1NC(=O)C(=Cc2ccccc2OCCOc2ccc([N+](=O)[O-])cc2)C(=O)N1 | inactive: -49.1%
2 | O=C1N(c2cccc(Cl)c2)C(c2cccnc2)N2CCCN12 (stereo not given) | inactive: 4.52%
3 | CCC(=NCCCO)c1c(O)n(-c2ccc(OC)cc2)c(=O)[nH]c1=O | inactive: -17.7%
4 | Cn1c(N)c(C(=O)COC(=O)Cc2ccccc2)c(=O)n(C)c1=O | inactive: 1.03%
5 | CCCCn1c(NC(=O)c2ccc(Br)o2)c(C(=O)OCC)c2nc3ccccc3nc21 | inactive: 6.37%
6 | N#Cc1c(/N=C/c2ccc(O)cc2O)sc2c1C1CCN2CC1 | inactive: -0.698%
7 | Cc1ccc(N2C(=O)NC(=O)/C(=C\c3ccoc3)C2=O)cc1 | inactive: 14.6%
8 | CC(Cc1cnccn1)NCc1c(C(=O)N2CCCCCCC2)nc2ccc(Cl)cn12 (stereo not given) | inactive: 9.58%
9 | CN1CCN(c2ccc([N+](=O)[O-])c(N3CCCCC3)c2)CC1 | inactive: 0.403%
10 | C[C@]12CC[C@H](O)CC1=CC(=O)C1C2CC[C@]2(C)C(=O)[C@H](O)CC12 (stereo not given in full) | inactive: -9.91%
11 | COC(=O)C(Cc1ccc(N(CCCl)CCCl)cc1)N=Cc1ccccc1O (stereo not given) | inactive: 4.43%
12 | O=P(C(Cl)Cl)(N1CCOCC1)N1CCOCC1 | inactive: 7.8%
13 | CC(C)N1C(=O)NC(=O)C2(Cc3cc([N+](=O)[O-])ccc3N(C)C2c2ccccc2)C1=O (stereo not given) | inactive: 6.06%
14 | Cc1ccccc1CN1CCN(C(=O)Cc2ccccc2)CC1 | inactive: -15.5%
15 | COC(=O)Cn1cc(C=C2C(=O)NC(=O)NC2=O)c2ccccc21 | inactive: 20.4%
16 | Cc1cccc(N2C(=O)NC(=O)/C(=C\c3cccn3-c3ccc(Cl)cc3)C2=O)c1 | inactive: -26.1%
17 | COc1ccc(Cn2c(O)c(/C=N/NC(=O)c3ccncc3)c(=O)[nH]c2=O)cc1 | inactive: -1.89%
18 | CCOc1cc2c(cc1OCC)-n1cccc1C(c1ccc(C)cc1C)NC2 (stereo not given) | inactive: 12.9%
19 | Cc1cccc(CN2CCCC(C(=O)c3ccc4c(c3)OCO4)C2)n1 (stereo not given) | inactive: 10%
20 | O=C(Cc1ccccc1)Oc1cccc(N2C(=O)CCC2=O)c1 | inactive: 14.1%
21 | CC1CCC/C=C/C2CC(O)CC2C(O)/C=C/C(=O)O1 (stereo not given) | inactive: 14.3%
22 | CC1N=C(c2ccccc2)c2cc(Br)ccc2NC1=O (stereo not given) | inactive: -21.8%
23 | CC/C(=N\Nc1cccc2ccccc12)c1c(O)[nH]c(=O)[nH]c1=O | inactive: -10.1%
24 | Cc1c2cnn(CC(=O)N3CCC4(CC3)OCCO4)c(=O)c2c(C)n1Cc1ccc(F)cc1 | inactive: -21.6%
25 | COCCNC(=O)CN1C(=O)CN=C(c2ccccc2)c2ccccc21 | inactive: 7.48%
